Molecular target: T1, glutamate receptor subunit GluR3 (rat)
T1 chain: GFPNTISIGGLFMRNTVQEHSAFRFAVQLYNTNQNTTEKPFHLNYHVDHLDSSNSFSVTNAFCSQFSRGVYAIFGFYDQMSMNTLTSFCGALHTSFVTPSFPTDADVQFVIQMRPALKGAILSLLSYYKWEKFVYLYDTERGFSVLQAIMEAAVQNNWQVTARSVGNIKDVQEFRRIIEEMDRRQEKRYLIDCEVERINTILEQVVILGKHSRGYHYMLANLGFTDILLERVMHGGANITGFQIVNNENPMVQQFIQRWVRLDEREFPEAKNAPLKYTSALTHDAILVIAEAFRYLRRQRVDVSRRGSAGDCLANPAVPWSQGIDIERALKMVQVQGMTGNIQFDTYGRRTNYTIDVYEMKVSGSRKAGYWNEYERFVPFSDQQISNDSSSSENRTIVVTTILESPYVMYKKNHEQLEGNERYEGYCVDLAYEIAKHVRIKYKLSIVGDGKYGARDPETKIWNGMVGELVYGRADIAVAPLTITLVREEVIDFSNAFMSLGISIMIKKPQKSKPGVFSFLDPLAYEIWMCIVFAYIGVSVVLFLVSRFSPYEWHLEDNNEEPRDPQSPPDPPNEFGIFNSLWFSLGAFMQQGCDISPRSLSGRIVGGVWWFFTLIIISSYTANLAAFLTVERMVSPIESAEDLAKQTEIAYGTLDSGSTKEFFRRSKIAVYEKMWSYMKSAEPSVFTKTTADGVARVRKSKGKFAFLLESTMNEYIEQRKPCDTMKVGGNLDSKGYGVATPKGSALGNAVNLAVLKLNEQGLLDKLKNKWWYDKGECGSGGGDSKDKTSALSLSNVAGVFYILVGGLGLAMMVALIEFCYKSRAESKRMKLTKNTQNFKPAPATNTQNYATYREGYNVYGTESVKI
Assay: cell-based or functional assay

B1: glutamate receptor subunit GluR2 (receptor)
chain: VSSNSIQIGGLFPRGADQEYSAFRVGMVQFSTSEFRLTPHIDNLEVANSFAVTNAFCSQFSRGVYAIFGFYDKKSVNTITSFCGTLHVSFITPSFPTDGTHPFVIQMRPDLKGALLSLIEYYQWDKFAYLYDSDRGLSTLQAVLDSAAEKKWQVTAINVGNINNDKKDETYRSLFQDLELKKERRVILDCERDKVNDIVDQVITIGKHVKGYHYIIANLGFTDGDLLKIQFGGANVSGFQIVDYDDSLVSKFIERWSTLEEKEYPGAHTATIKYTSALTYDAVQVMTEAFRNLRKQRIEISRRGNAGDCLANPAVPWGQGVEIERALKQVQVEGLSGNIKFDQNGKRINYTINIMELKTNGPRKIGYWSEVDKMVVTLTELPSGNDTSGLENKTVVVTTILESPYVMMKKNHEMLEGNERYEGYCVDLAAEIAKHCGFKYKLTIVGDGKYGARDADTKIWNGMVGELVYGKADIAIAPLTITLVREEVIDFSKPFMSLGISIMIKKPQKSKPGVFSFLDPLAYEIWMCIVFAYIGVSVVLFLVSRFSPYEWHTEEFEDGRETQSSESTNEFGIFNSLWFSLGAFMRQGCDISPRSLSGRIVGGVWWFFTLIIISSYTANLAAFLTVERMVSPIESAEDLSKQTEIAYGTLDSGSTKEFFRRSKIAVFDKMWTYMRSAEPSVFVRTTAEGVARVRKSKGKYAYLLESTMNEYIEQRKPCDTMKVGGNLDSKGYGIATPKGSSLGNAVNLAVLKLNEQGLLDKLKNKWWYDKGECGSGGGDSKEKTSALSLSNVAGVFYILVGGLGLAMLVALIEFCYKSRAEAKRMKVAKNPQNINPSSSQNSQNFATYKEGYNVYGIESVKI
  KA-evoked currents in Xenopus oocytes on co-expression, against the summed responses of singly injected oocytes: ~2 fold

From patent US5739291, “Glutamate receptor antibodies” (The Salk Institute For Biological Studies, dated 1998)
